# From ChEMBL document CHEMBL4888484, “Replenishing the malaria drug discovery pipeline: Screening and hit evaluation of the MMV Hit Generation Library 1 (HGL1) against asexual blood stage Plasmodium falciparum ,using a nano luciferase reporter read-out” (2022)
# Out of some 150,000 compounds screened, about 540 (0.36%) showed an effect of 50% or more. This is one part of the list.
# Test system: Plasmodium falciparum
# Test: Primary screen in NF54 nanoGlo assay, in single point, at 2uM, 72h; a lower Z score goes with more inhibition
# Type: functional, Erythrocyte
# Details: timepoint 72 hour
SMILES,% Inhibition [%],Z score
O=C(NCC#C[C@@H]1CCCCO1)c1cccn(C2CC2)c1=O,1,-0.07
COc1cc(NC(=O)CN(C)C2CCCC2)cc(OC)c1OC,-11,1.24
Cc1ccc(S(=O)(=O)N(c2sc3c(c2C#N)CCCC3)S(=O)(=O)c2ccc(C)cc2)cc1,13,-1.62
Cc1cccc(-c2noc(-c3ccc4ccccc4c3)n2)c1,-15,2.66
COc1ccc2c(c1)CCCN(C(=O)c1nccc3occc13)C2,2,-0.32
O=C(c1ccsc1)N1CC2(C[C@H](N3CCOCC3)CO2)C1,-15,2.38
CC(C)(C)c1ccc(OCc2nc([C@@H]3C[C@@H](O)CN3)n(CC(=O)O)n2)cc1,-4,0.61
O=C(Nc1ccc2c(c1)OCCO2)c1ccc(-c2noc(C3CCCC3)n2)cc1,-18,3.05
CCCn1c(=O)sc2cc(NS(=O)(=O)c3ccc(OC)cc3)ccc21,-11,1.48
CC1(C)CN(C(=O)Nc2ccnc(Oc3ccc(F)cc3F)c2)C[C@@H]1O,-5,0.64
Cn1c(=O)[nH]cc(C(=O)N2CC[C@@]23CCCN(C(=O)OC(C)(C)C)C3)c1=O,-5,0.55
CCCCS(=O)(=O)Nc1ccc(NS(=O)(=O)CCCC)c(Cl)c1,5,-0.66
CC(=O)N[C@H]1CCN(C(=O)NCC(C)(C)c2ccc(C)cc2C)C1,28,-3.12
Cc1ccc(C)n1-c1ncc(Br)cn1,-10,1.44
CC[C@@](C)(C#N)NC(=O)c1cccc(C#N)c1,-2,0.32
CCOc1ccc([C@@H]2C[C@H](c3cccc(Br)c3)n3nnnc3N2)cc1Cl,-2,0.25
CCOc1cc(C(=O)N(C)c2ccc(N(C)C)cc2)ccn1,-4,0.62
CN1CCN(C(=O)CCCCc2c[nH]nn2)C[C@@]12CCOC2,-14,2.26
CN(C)S(=O)(=O)c1ccc2nc(NC(=O)c3cccc4ccccc34)sc2c1,-3,0.3
Cc1c(NC(=O)c2ccc(-c3ccccc3)o2)cccc1-c1nc2ncccc2o1,-9,1.04
CC1CC2CCCCC2N1C(=O)NCCCCN1CCOCC1 (stereo not given),-7,0.95
O=C(c1cc(-c2ccccc2)[nH]n1)N1CCn2c(nnc2C(F)(F)F)C1,-6,0.88

SMILES,% Inhibition [%],Z score
Cc1cc(C(=O)N(Cc2ccccn2)c2ccc(Cl)cc2)c2c(C)noc2n1,-30,3.48
Cc1cccc(Cn2cnc(NC(=O)c3cc(C)nc4c3cnn4C)n2)c1,30,-3.44
OCCN(Cc1ccccn1)C1CCCCC1,-11,1.48
O=S(=O)(c1cccs1)N1CCN(c2cnn3c(C4CC4)nnc3c2)CC1,-2,0.29
CC1(O)CCN(C(=O)NC2CCC(Oc3ncccc3Cl)CC2)CC1 (stereo not given),-15,1.47
Cc1ccc(-c2sc(NC(=O)c3ccncc3)nc2-c2ccccc2)cc1C,-2,0.26
COc1ccc(CCC(=O)N2CCC3C(CCCN3C)C2)cc1F (stereo not given),7,-1.43
O[C@H]1CNCC[C@@H]1Nc1cc(-c2ccccc2)nc2ccccc12,35,-8.29
C[C@@H](C(=O)NCCCc1nccs1)N1CCN(C)CC1,-1,0.17
CCN(CCCN1CCCC1)S(=O)(=O)c1cnccc1C,-4,0.51
CCN1CCN(C(=O)c2cccc(Nc3c(Oc4cccc(C)c4)cnn(-c4cccc(Cl)c4)c3=O)c2)CC1,-13,2.15
CS(=O)(=O)NC(=O)[C@H]1C[C@@H]1C1CCC1,-13,2.27
Cc1nc([C@@H](c2ccc(F)cc2)C(C#N)C#N)c(O)[nH]1,-2,0.28
O=C(O)[C@H]1CCN(C(=O)Cn2c(COc3ccccc3)nc3ccccc32)C1,-10,0.93
COCc1cn([C@H]2CO[C@H]3[C@@H]2OC[C@@H]3NC(=O)c2ccc(OC)cc2)nn1,-1,0.17
Cc1nnc(CN(C)Cc2c[nH]nc2-c2ccc(-c3ccccc3)cc2)o1,5,-0.55
COCCn1c(C)cc(=O)c(C(=O)N2CCN(c3cc(C)ccc3C)CC2)c1CC1CCCC1,17,-2.12
CC1CC(N2C(=O)NC3(Cc4ccccc4C3)C2=O)C1 (stereo not given),-7,0.74
Fc1cnc2[nH]c(-c3cccnc3)nc2c1,4,-0.55
COC(=O)CN1CCCN(Cc2cccc3[nH]ccc23)CC1,-5,0.49
COc1cc(CN2CC(=O)N(C)C3(CCOCC3)C2)ccc1F,-4,0.79
CCn1ccc2ccc(CN3CCC[C@@](O)(CN(C)C)C3)cc21,10,-1.84

SMILES,% Inhibition [%],Z score
CCCCS(=O)(=O)NCc1nc(-c2ccco2)n[nH]1,0,0.09
Clc1ccccc1-c1cc(CN2CCC[C@@H]2Cn2cncn2)no1,-16,1.7
CC[C@H]1COCCN1CCC(=O)NCc1ccc(F)cc1,-4,0.76
O=C(NC[C@H]1CCCO1)c1cccnc1Oc1cccc(NS(=O)(=O)c2ccc(Cl)s2)c1,0,-0.07
Cc1ccc(CNC(=O)c2cccc(-c3nc4cccnc4n3C)c2)cc1,-8,1.1
CCOC(=O)CCNC(=O)Nc1ccccn1,-7,1.06
CC(C)C[C@@H](CN(C)C)NC(=O)c1c[nH]nc1-c1ccoc1,-7,1.25
Cc1c(C(=O)NC2CCCCC2)sc2ncnc(N(C)c3ccccc3)c12,-15,2.5
CC(C)C[C@@H](NS(=O)(=O)c1cnc(-c2ccccc2)nc1)C(=O)O,-12,1.33
CN(Cc1ccccc1)C(=O)[C@@H]1Cc2[nH]cnc2CN1Cc1ccc(C(=O)O)cc1,6,-0.7
Cn1cc(S(=O)(=O)NCCCc2cc(N)n(-c3ccccc3)n2)cc1C(N)=O,0,0.06
CCN=C(NCCOC1CCCCCC1)NCc1nc(C2CC2)no1,-15,2.17
CC(C)c1nnc(CNC(C)(C)c2ccc(F)cc2Cl)o1,6,-0.81
Cc1cc(N2CC(Cn3nc(C(C)(C)C)ccc3=O)C2)n2nc(C)cc2n1,-9,1.31
CNC(=O)Cn1c(Cc2ccccc2)nn(-c2ccc(Cl)cc2)c1=O,-3,0.35
Cn1ncc2c(N3CCN4CCC[C@H]4C3)nc(CCc3ccccc3)nc21,-8,1.48
O=C1OCC2(CCN(Cc3cccc4cc[nH]c34)CC2)O1,7,-0.91
O=C(NC1CCC(F)(F)CC1)[C@@H]1CCCO1,-24,3.04
CS(=O)(=O)c1ccc(-c2nnc(NC(=O)c3ccc(-c4ccccc4)cc3)o2)cc1,20,-2.59
O=C(C1CC2C=CC1C2)N1CCN(Cc2ccncc2)CC1 (stereo not given),-3,0.48
COc1ccc(Cl)cc1NC(=O)N1CCC2(CC1)CN(C)C[C@@H]2c1nnc(C)o1,-2,0.28
COc1ccccc1Cc1nc([C@H]2CCOC2)n(CC(F)(F)F)n1,-3,0.35

SMILES,% Inhibition [%],Z score
C[C@@H](NC(=O)c1ncoc1C1CC1)C1CCCC1,-8,0.97
CCCc1ncncc1C(=O)NCC1(CO)CCOCC1,-7,1.35
CC(C)c1noc(-c2cccn3c(CNC(=O)C4CCCCC4)nnc23)n1,-7,1.41
CCc1cc(C(=O)NCc2ccco2)no1,2,-0.23
Clc1ccc2oc(NCc3cccnc3)nc2c1,-2,0.4
CCc1noc(CC)c1CNC(=O)Nc1ccc2c(c1)CCCO2,4,-0.82
COC1(CO)CCN(c2nnnn2Cc2cccc(Cl)c2)CC1,-7,0.96
O=C(O)C[C@H]1CNCCN(C(=O)c2cccc(Oc3ccccc3)c2)C1,4,-0.81
CS(=O)(=O)N[C@H]1C[C@@H]2C[C@H]1CN2C(=O)c1ccccc1C(F)(F)F,-8,1.15
O=C(NC[C@H]1CCS(=O)(=O)C1)c1ccc2sccc2c1,2,-0.33
COC[C@H](C)N1Cc2ccc(O)cc2C1,-4,0.78
CC(C)NC(=O)c1ccc2nc3ccccc3c(=O)n2c1,-9,1.62
C[C@H]1Cc2ccccc2N1C(=O)c1ccc2c(c1)CCC(=O)N2,0,-0.01
Cn1cnnc1CCC(=O)NC[C@@]1(C)CCCO1,-7,1.34
Cc1cc(C(=O)NCC2CCc3ccccc3CC2)oc1C(=O)O,-26,2.59
C=Cc1ccc(S(=O)(=O)N2CCOC[C@@]23CCOC3)cc1,-14,2.4
COc1ccc(-n2nc(C(=O)Nc3ccc(F)cc3)c(=O)n(Cc3ccccc3)c2=O)cc1,4,-0.36
CC(=O)Nc1cccc(C(=O)N2CC3CC2CO3)c1 (stereo not given),-9,1.01
CC[C@H](NC1CCN(c2cc(C)nc(C)n2)CC1)c1ccc2c(c1)CCO2,-8,0.97
